The values below come from a collection of fitness landscapes (doi:10.1016/j.celrep.2020.107928).

In all, about 81,000 sequences were measured (“one-hybrid fitness for binding NBS DNA”: median about -0.1, highest 2% from about 0.36 on). The list shows a part of the results.

B1: Caulobacter ParB omega fusion; a variant is named by its letters at X, in order, B8GW30 (parent)
chain: MESVVVGEPGMSEGRRGLGRGLSALLGEVDAAPAQAPGEQLGGSREAPIEILQRNPDQPRRTFREEDLEDLSNSIREKGVLQPILVRPSPDTAGEYQIVAGERAWRAAQRAGLKTVPIMVRELDDLAVLEIGIIENVQRADLNVLEEALSYKVLMEKFERTQENIAQTIGKSXSHVANXMRLLXLPDEVQSYLVSGELTAXHARAIAAAADPVALAKQIIEGGLSVRETEALARKAPNLSAGKSKGGRPPRVKDTDTQALESDLSSVLGLDVSIDHRGSTGTLTITYATLEQLDDLCNRLTRGI

The variants in this assay derive from B1. Kind of assay: one-hybrid fitness for binding NBS DNA (the Noc-binding site; scaled: cognate 1, non-cognate 0); higher = stronger binding. As to conditions: with NBS DNA site. The procedure, abridged: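 Fitness is the rescaled log change in variant-to-wild-type read ratio, measured by Illumina sequencing of plasmids before and after bacterial one-hybrid selection. The scale puts cognate at 1 and non-cognate at 0. Selection of Caulobacter ParB libraries, four specificity codons randomised, took place in E. coli USO with a HIS3 reporter, site 19 bp from the promoter, over 48 hours at 37°C on M9-minus-histidine with 0.1 mM IPTG and 5 mM 3-AT.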
Take FAMR: the “one-hybrid fitness for binding NBS DNA” value was at most 0.2. Then DKGS, with at most 0.2.

With AEHP, the “one-hybrid fitness for binding NBS DNA” value was at most 0.2. In the case of HTTK it was at most 0.2; in that of TARE, at most 0.2; in that of VEKP, at most 0.2. Then RLME, with at most 0.2. For the variant RQIN, the “one-hybrid fitness for binding NBS DNA” value is at most 0.2. For the variant AFSR, the “one-hybrid fitness for binding NBS DNA” value was at most 0.2.

In the case of KTPT, the “one-hybrid fitness for binding NBS DNA” value was at most 0.2. In the case of RPKC it was at most 0.2; in that of GYAT, at most 0.2.

As to WISW, the “one-hybrid fitness for binding NBS DNA” value is at most 0.2. DSTA: the “one-hybrid fitness for binding NBS DNA” value is at most 0.2. Turning to TDFS, the “one-hybrid fitness for binding NBS DNA” value was at most 0.2. Turning to HSQP, the “one-hybrid fitness for binding NBS DNA” value is at most 0.2. Then RKCY, with at most 0.2; and VQFS, with at most 0.2; and PRIV, with at most 0.2. Then LPPH, with at most 0.2; and IEDG, with at most 0.2. For the variant PLHM, the “one-hybrid fitness for binding NBS DNA” value was at most 0.2. In the case of SFLT it was at most 0.2; in that of SWQG, at most 0.2. In the case of NLMC it was at most 0.2; in that of RYTM, at most 0.2.

For the variant ICYS, the “one-hybrid fitness for binding NBS DNA” value was at most 0.2.

On to VAES, for which the “one-hybrid fitness for binding NBS DNA” value is at most 0.2. In the case of PLTW it was at most 0.2; in that of QQMF, at most 0.2.

On to EATS, for which the “one-hybrid fitness for binding NBS DNA” value was at most 0.2.

With WSRP, the “one-hybrid fitness for binding NBS DNA” value was at most 0.2.

For the variant AIVL, the “one-hybrid fitness for binding NBS DNA” value is at most 0.2. In the case of PLKI it was at most 0.2; in that of FETS, at most 0.2. Then EFKG, with at most 0.2; and IQPG, with at most 0.2.

Consider ELHG, for which the “one-hybrid fitness for binding NBS DNA” value is at most 0.2. In the case of YFAD it was at most 0.2. Regarding LRYP, the “one-hybrid fitness for binding NBS DNA” value is at most 0.2.

Regarding HSAV, the “one-hybrid fitness for binding NBS DNA” value was at most 0.2. Take EKHS: the “one-hybrid fitness for binding NBS DNA” value was at most 0.2.

Consider QPQS, for which the “one-hybrid fitness for binding NBS DNA” value is at most 0.2. Then GKAC, with at most 0.2; and RYFE, with at most 0.2; and MHCG, with at most 0.2. On to QTTD, for which the “one-hybrid fitness for binding NBS DNA” value was at most 0.2. In the case of GNAL it was at most 0.2; in that of RQDI, at most 0.2; in that of NLAC, at most 0.2. Then VPWS, with at most 0.2; and PDNV, with at most 0.2.

Regarding DASP, the “one-hybrid fitness for binding NBS DNA” value is at most 0.2.

LKDA: the “one-hybrid fitness for binding NBS DNA” value was at most 0.2. With CMER, the “one-hybrid fitness for binding NBS DNA” value is at most 0.2. With QSIG, the “one-hybrid fitness for binding NBS DNA” value is at most 0.2. In the case of MDCR it was 0.302; in that of DMKL, at most 0.2; in that of SFER, at most 0.2. Then QPKY, with at most 0.2. Then ANCS, with at most 0.2. Consider RTEV, for which the “one-hybrid fitness for binding NBS DNA” value was at most 0.2.

As for TLKV, the “one-hybrid fitness for binding NBS DNA” value is at most 0.2. In the case of VTPN it was at most 0.2; in that of QKET, 0.391.

On to AATF, for which the “one-hybrid fitness for binding NBS DNA” value was at most 0.2. In the case of TRFL it was at most 0.2. Then QHVW, with at most 0.2; and HANC, with at most 0.2; and VMKS, with at most 0.2. Then DGDS, with at most 0.2. With YPTW, the “one-hybrid fitness for binding NBS DNA” value is at most 0.2.

On to LLTS, for which the “one-hybrid fitness for binding NBS DNA” value is at most 0.2. For the variant HMLF, the “one-hybrid fitness for binding NBS DNA” value is at most 0.2.

Take RWMG: the “one-hybrid fitness for binding NBS DNA” value was at most 0.2. In the case of SCMG it was at most 0.2; in that of QTKK, 0.596; in that of SMKG, at most 0.2. Regarding PKNC, the “one-hybrid fitness for binding NBS DNA” value was at most 0.2. In the case of CTMR it was at most 0.2; in that of NIVE, at most 0.2.

Regarding LIRT, the “one-hybrid fitness for binding NBS DNA” value is at most 0.2. Regarding PGLD, the “one-hybrid fitness for binding NBS DNA” value is at most 0.2.

Consider FQRS, for which the “one-hybrid fitness for binding NBS DNA” value was at most 0.2.

Turning to QLIA, the “one-hybrid fitness for binding NBS DNA” value was at most 0.2. Then RFPM, with at most 0.2; and HLKY, with at most 0.2; and LMPE, with at most 0.2.

As to HYVG, the “one-hybrid fitness for binding NBS DNA” value was at most 0.2. Then LFAR, with at most 0.2. In the case of NLDC it was at most 0.2; in that of SRPS, at most 0.2; in that of QTLQ, at most 0.2. Take VCDS: the “one-hybrid fitness for binding NBS DNA” value was at most 0.2. In the case of SHET it was at most 0.2; in that of WMQV, at most 0.2. In the case of HTNK it was at most 0.2; in that of FYLF, at most 0.2; in that of NLHS, at most 0.2. In the case of EMAS, the “one-hybrid fitness for binding NBS DNA” value was at most 0.2. As to HRFG, the “one-hybrid fitness for binding NBS DNA” value is at most 0.2. Then RLWL, with at most 0.2; and SPSQ, with at most 0.2. In the case of PTQN, the “one-hybrid fitness for binding NBS DNA” value was at most 0.2. Then AFAL, with at most 0.2; and KLSN, with at most 0.2; and PETS, with at most 0.2. Then SCTA, with at most 0.2; and KMAL, with at most 0.2. Then TRKF, with at most 0.2. For CPYS, the “one-hybrid fitness for binding NBS DNA” value is at most 0.2. For ERRM, the “one-hybrid fitness for binding NBS DNA” value is at most 0.2. Then LLVR, with at most 0.2; and YALM, with at most 0.2; and YTDR, with at most 0.2.

For the variant SKRV, the “one-hybrid fitness for binding NBS DNA” value is at most 0.2. On to CCIK, for which the “one-hybrid fitness for binding NBS DNA” value is at most 0.2. In the case of VTPC it was at most 0.2; in that of THLQ, at most 0.2. In the case of IHFR, the “one-hybrid fitness for binding NBS DNA” value was at most 0.2.

Take GPSW: the “one-hybrid fitness for binding NBS DNA” value was at most 0.2. In the case of KNYG it was at most 0.2; in that of LVRM, at most 0.2.

For the variant ACTL, the “one-hybrid fitness for binding NBS DNA” value was at most 0.2. Turning to SVPY, the “one-hybrid fitness for binding NBS DNA” value is at most 0.2. Turning to VEDW, the “one-hybrid fitness for binding NBS DNA” value is at most 0.2. In the case of IHWS it was at most 0.2; in that of LPVT, at most 0.2.

For NLPG, the “one-hybrid fitness for binding NBS DNA” value was at most 0.2.

With TPLS, the “one-hybrid fitness for binding NBS DNA” value was at most 0.2. In the case of GVNY it was at most 0.2. In the case of FYAG it was at most 0.2.

With VIPL, the “one-hybrid fitness for binding NBS DNA” value was at most 0.2. In the case of AAAY it was at most 0.2. Then KIFL, with at most 0.2; and QQQT, with 0.449. Then ETST, with at most 0.2; and SCDG, with at most 0.2; and TKTQ, with at most 0.2. As for KECR, the “one-hybrid fitness for binding NBS DNA” value is at most 0.2. Then GPCR, with at most 0.2; and ARPH, with at most 0.2. In the case of DVNH it was at most 0.2. Turning to TKIV, the “one-hybrid fitness for binding NBS DNA” value is at most 0.2.

Turning to LQIG, the “one-hybrid fitness for binding NBS DNA” value was at most 0.2. In the case of MNSC it was at most 0.2.

On to QREN, for which the “one-hybrid fitness for binding NBS DNA” value was at most 0.2. TIDL: the “one-hybrid fitness for binding NBS DNA” value is at most 0.2. In the case of PNAI it was at most 0.2; in that of AIDF, at most 0.2; in that of QIMY, at most 0.2. Then FPMG, with at most 0.2; and YYYG, with at most 0.2.
